Test results taken from PubChem BioAssay AID686970 (National Center for Advancing Translational Sciences (NCATS), 2013).
Screen size: about 360,000 compounds; about 6,000 (1.7%) were called active. The inconclusive results got no clear call from the source; some entries with a clear call stand among them for comparison. Calls follow the shape of the dose curve; as a rule, active = well fitted cell-killing curve with a large enough effect; inconclusive = small, poorly fitted or top-dose-only effect, or effect the other way; inactive = flat fitted curve, though single readings scatter. Potencies of inconclusive entries are left out as doubtful fits.

Experiment: qHTS for induction of synthetic lethality in tumor cells producing 2HG: qHTS for the HT-1080-NT fibrosarcoma cell line;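 also: NT is the 2HG producing partner of a matched IDH1 knockdown line; nearly all actives have a fitted effect of over 55% in size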;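 as to activity, negative = less viability: 0% = DMSO-treated cells and -100% = media-only wells without cells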
Details: HT-1080-NT fibrosarcoma viability, CellTiter-Glo ATP luminescence, 48 h; activity, negative = less viability: at 46.1 µM (top of the series)
Method in brief: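 Compounds were tested in concentration-response format on HT-1080-NT cells for 48 hours at 37 degrees C. Cell viability came from CellTiter-Glo luminescence; curves were classified by r2, response magnitude and activity.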
Potency is read from the fitted curve at half-maximal effect; tags tell the direction and shape of the fitted curve.

Compound	activity, negative = less viability	Potency
COc1cc(OC)c(OC)cc1CNCCc1ccc(F)cc1	inactive: -4.11%	
CC(C)n1c(/C=C/[C@@H](O)C[C@@H](O)CC(=O)O)c(-c2ccc(F)cc2)c2ccccc21		active: 1.46 µM
CC(=O)CC(c1ccc2c(c1)OCO2)c1c(O)c2ccccc2oc1=O (stereo not drawn)	inactive: 15%	
CN(C)C(=O)Oc1ccc(Br)cc1C(=O)Nc1ccc(F)c(Cl)c1		inconclusive [cytotoxic, partial curve]
CCn1c(=N)n(Cc2ccccc2F)c2ccccc21	inactive: -2.89%	
COc1ccc(Cn2c(N)c(C(=O)NCc3ccco3)c3nc4ccccc4nc32)cc1OC		inconclusive [cytotoxic, single point]
Cc1cc(OCC(=O)NC2CCS(=O)(=O)C2)c2c3c(c(=O)oc2c1)CCC3 (stereo not drawn)	inactive: 1.88%	
CC(C)(C)c1o[nH]c(=O)c1CC(N)C(=O)O (stereo not drawn)	inactive: 19.8%	
CC(N)C(=O)NC1C2C(=C(O)CC(O)C2O)C(=O)OC1(C)C(Cl)Cl (stereo not drawn)		inconclusive [cytotoxic, full curve]
O=Cc1cn(Cc2ccccc2[N+](=O)[O-])c2ccccc12		inconclusive [cytotoxic, single point]
O=[N+]([O-])c1nccn1CC(O)CN1CC1 (stereo not drawn)	inactive: 22.8%	
CCOC(=O)[C@]12Cc3cc(OC)ccc3[C@H]1N(C1CCCCC1)C(=O)c1ccccc12		active: 2.59 µM
C[C@]12CC(=O)CC1CCC1C2CC[C@@]2(C)C1CC[C@@H]2O (stereo partly drawn)		inconclusive [rising, single point]
CC(C)N1C(=O)/C(=C/C=C/c2ccco2)C(=O)N(Cc2ccco2)C1=O		inconclusive [cytotoxic, single point]
Cc1c(N=Nc2c(O)[nH]c(=S)[nH]c2=O)c(=O)n(-c2ccccc2)n1C	inconclusive: 1.62%	
Cc1cc(C(=O)CS(=O)(=O)c2ccccc2)cc(C)c1OC(=O)N(C)C	inactive: -17.2%	
CCc1cc(=O)oc2cc(OCC(=O)N3C[C@H]4C[C@@H](C3)c3cccc(=O)n3C4)c(Cl)cc12	inactive: 3.34%	
CCOC(=O)[C@]12Cc3cc(OC)ccc3[C@H]1N(Cc1ccccc1)C(=O)c1cc(F)c(F)cc12	inactive: -1.45%	
NC1=C(Br)C(=O)c2ccccc2C1=O		active: 25.9 µM
CCCCCCn1c(N)c(C(=O)NCCN2CCOCC2)c2nc3ccccc3nc21		inconclusive [cytotoxic, single point]
CCC1(O)C(=O)OCc2c1cc1n(c2=O)Cc2cc3c(N)cccc3nc2-1 (stereo not drawn)		active: 1.64 µM
Nc1ccc2c3c(cccc13)-c1ccccc1-2		inconclusive [cytotoxic, single point]
N#CC1=C(N)Oc2c(c(=O)sc3ccccc23)C1c1cccnc1 (stereo not drawn)		active: 3.26 µM
O=C(Nc1ccc(Cl)cc1C(=O)c1ccccc1)c1ccc(Br)o1	inactive: -16.7%	
O=c1[nH]c(=O)n(C2CCCCCC2)c(O)c1C=NCc1cccnc1	inactive: -12.2%	

Compound	activity, negative = less viability	Potency
Cc1ccc(-c2cc(-c3ccc(C)cc3)[n+](-c3ccccc3)c(-c3ccc(C)cc3)c2)cc1		active: 5.17 µM
O=C1/C(=C\c2cc3c(cc2Br)OCO3)N2CCC1CC2		inconclusive [cytotoxic, single point]
CCCCCCC(=O)N/N=C/c1c(O)n(CCCC)c(=S)[nH]c1=O		inconclusive [cytotoxic, single point]
Oc1cc(Cl)ccc1Oc1ccc(Cl)cc1Cl		inconclusive [cytotoxic, single point]
Cc1ccc2c(c1)N(C(C)C(=O)N1CCC3(CC1)OCCO3)C(=O)CO2 (stereo not drawn)	inactive: 11.7%	
CCOc1cc2c(cc1OCC)-n1cccc1C(c1cccc(F)c1)NC2 (stereo not drawn)	inactive: -22.9%	
CC1CC(C)CC(C)C(O)C(C#N)=CC=CCC(C2CCCC2C(=O)O)OC(=O)CC(O)C(C)C1 (stereo not drawn)		active: 0.0092 µM
Oc1cc(Cl)c(Cl)c(Cl)c1		inconclusive [cytotoxic, single point]
Cc1ccccc1N1C(=O)NC(=O)/C(=C\c2ccc3c(c2)CCCN3Cc2ccccc2)C1=O		inconclusive [cytotoxic, single point]
COc1ccc(C(c2nnnn2Cc2ccccc2)N2CCC(n3c(=O)[nH]c4ccccc43)CC2)cc1 (stereo not drawn)		inconclusive [cytotoxic, single point]
O=c1c2ccccc2nc(/C=C/c2cccnc2)n1Cc1ccccc1		inconclusive [cytotoxic, single point]
Cn1cc([N+](=O)[O-])c(C(=O)Nc2ccc3c(C(F)(F)F)cc(=O)oc3c2)n1		inconclusive [cytotoxic, single point]
O=C1NCN(c2ccccc2)C12CCN(C(c1cccs1)c1nnnn1C1CCCCC1)CC2 (stereo not drawn)		inconclusive [cytotoxic, single point]
S=C(NCCc1ccccc1)N1Cc2ccc(Br)cc2-n2nncc2C1		inconclusive [cytotoxic, single point]
O=C1NCN(c2ccccc2)C12CCN(C(CCc1ccccc1)c1nnnn1C1CCCCC1)CC2 (stereo not drawn)		inconclusive [cytotoxic, single point]
COc1nc(C)nc(Cl)c1NC1=NCCN1		inconclusive [rising, single point]
COc1cc(/C=C/c2nc3ccccc3c(=O)n2-c2ccccc2O)ccc1O		inconclusive [cytotoxic, partial curve]
C/C(=C\c1ccc(N(C)C)cc1)[N+](=O)[O-]		active: 11.2 µM
O=C1NC(=O)C(=Cc2cn(CCOc3ccc4c(c3)OCO4)c3ccccc23)C(=O)N1	inactive: -2.65%	
COCCCn1c(N)c(C(=O)NCc2ccco2)c2nc3ccccc3nc21	inactive: -0.887%	
C/C(=N\N(C)c1ccccc1)c1c(O)[nH]c(=O)[nH]c1=O		inconclusive [cytotoxic, partial curve, poor fit]
COC(=O)C1=C(c2cccc(OC)c2OC)C[C@@H]2CC[C@H]1N2C(=O)NC1CC1	inactive: 6.2%	
CCCn1ncc(CN2CCCC(C(=O)c3cccc(OC)c3)C2)c1C (stereo not drawn)	inactive: -8.02%	
O=c1[nH]c(=S)n(CCC2=CCCCC2)c(O)c1/C=N/Nc1ccccc1		inconclusive [cytotoxic, partial curve]
CCOP(=O)(OCC)c1nc(-c2ccc(F)cc2)oc1NCc1ccccc1		inconclusive [cytotoxic, partial curve]

Compound	activity, negative = less viability	Potency
COC(=O)C1=C(c2ccccc2OCc2ccccc2)C[C@@H]2CC[C@H]1N2C(=O)NCc1ccc([N+](=O)[O-])cc1		inconclusive [cytotoxic, single point]
CCOCCc1c(O)[nH]c(=S)[nH]c1=O		inconclusive [rising, partial curve]
CCN(CC)c1ccc(CNCCc2ccccc2F)cc1		active: 16.4 µM
Cn1ncnc2c(=O)n(C)c(=O)nc1-2		active: 0.517 µM
COc1ccc(-n2nnnc2C(c2ccccc2)N2CCC(n3c(=O)[nH]c4ccccc43)CC2)cc1 (stereo not drawn)		inconclusive [cytotoxic, partial curve, poor fit]
CC(Cc1ccccc1)[n+]1cc(/N=C(\[O-])N(C)C)on1 (stereo not drawn)	inactive: 5.98%	
O=c1oc2ccccc2n1CSC1=NCCS1		inconclusive [cytotoxic, single point]
CCN1CCN(Cc2cc(OC)c3c(c2)OCO3)CC1	inconclusive: 35.9%	
CC(C)(C)c1ccc(/C=C2\Oc3cc(OC(=O)N4CCOCC4)ccc3C2=O)cc1		active: 20.6 µM
C=C1C(=O)O[C@H]2[C@H]1[C@H](OC(=O)CC(=O)O[C@@H]1C[C@@H](C)[C@@H]3C=CC(=O)[C@@]3(C)[C@H]3OC(=O)C(=C)[C@H]13)C[C@@H](C)[C@H]1C=CC(=O)[C@]12C		inconclusive [cytotoxic, single point]
CN1C[C@H](CO)C=C2c3cccc4[nH]cc(c34)C[C@H]21	inactive: -3.46%	
COC1=CC(=O)OC(/C=C/c2ccccc2)C1 (stereo not drawn)	inactive: -29.5%	
ClCCN(CCCl)c1ccc(C=NNc2ncccn2)cc1	inactive: -16.6%	
Cc1ccc(-c2nc(N(C)C3CCN(C)CC3)c3ccccc3n2)cc1		active: 12.6 µM
CC(N)Cc1c[nH]c2ccc(O)cc12 (stereo not drawn)		inconclusive [rising, full curve]
N#CCCn1cc(C(=O)Nc2ccc(F)cc2)c(-c2ccc([N+](=O)[O-])cc2)n1		inconclusive [cytotoxic, single point]
Oc1ccc2c3c1OC1c4oc5ccccc5c4C[C@@]4(O)[C@@H](C2)N(CC2CC2)CC[C@]314 (stereo partly drawn)		inconclusive [cytotoxic, partial curve, poor fit]
Cc1ccc(C[n+]2c(-c3ccc(C)cc3)cc(-c3ccc(C)cc3)cc2-c2ccc(C)cc2)cc1		active: 3.26 µM
CNc1ccc2oc(C[C@H]3O[C@@]4(CC[C@H]3C)O[C@H]([C@H](C)C(=O)c3ccc[nH]3)[C@H](C)C[C@H]4C)nc2c1C(=O)O		active: 1.46 µM
O=[N+]([O-])c1cc([As](=O)(O)O)ccc1O		inconclusive [rising, single point]
O=[N+]([O-])c1ccc(N2CCOCC2)c2c1no[n+]2[O-]		active: 5.17 µM
COc1ccc(C=C2C(=O)N(C)C(=O)N(C)C2=O)cc1COc1ccc(NC(C)=O)cc1		inconclusive [cytotoxic, partial curve]
c1cncc(CNC2CCCCC2)c1	inactive: 3.07%	
